{
  "source": "paper PMC12136788",
  "binders": {"B1": {"name": "44935981_44937674_2843_CDS_ENSG00000147050_ENST00000377967|human|control|control (ssRNA)", "RNA": "GGGAGUUCUACAGUCCGACGAUCAGGAAAGAAAGCAUCACGUUUAUUUUCCAAGUAAAUACUAGGUGUAGGUGGAUUCAACUUGUCCUUUGGCAAGGGAGGGUAUGGUGAAGAUGGUGGUCUUGGAGGUGGACAUUUAUCCAACAACAGAGGAUUGAGCAUCA"}, "B2": {"name": "chr2:198351390:198351391:-_ENSG00000144381_ENST00000345042|hu_hu|hu_hu_hu_mus_False|58_88 (ssRNA)", "RNA": "GGGAGUUCUACAGUCCGACGAUCUCAUUCCCACCCUCCACAGAAAGGCUGCUUAACAACUCUCAUGUGGUGACACAGCACUAAAAUCCUGAUGCUCACAGAACAGUAGAGAUGCCUCAGUGAUUUAAGUUGAAAGCAGGACACCAACAGAGGAUUGAGCAUCA"}, "B3": {"name": "chrX:69798090:69798091:-_ENSMUSG00000031343_ENSMUST00000055966|mus_hu|FALSE|FALSE (ssRNA)", "RNA": "GGGAGUUCUACAGUCCGACGAUCAAGUCCCCGGGUUCUUGUCGUCUUGAUUCCCCUUGACCAGUGGUUCCAGGGAGAAUAUUAAUCAGGAAAAGAAUCCCAAGGCUGGUCAUGUAACAGUGACUUGUUUGUGUGAUUAUCAUCCAACAGAGGAUUGAGCAUCA"}, "B4": {"name": "chr1:160310041:160310042:-_ENSG00000122218_ENST00000241704|hu_mus|FALSE|FALSE (ssRNA)", "RNA": "GGGAGUUCUACAGUCCGACGAUCUUUGUCAAUUAGGGUGCACAUCCGAUAGUCCCAUAACUGGAUGACCCCAUUGUGUAAACUGGUCAGGAUCCAGGGUCUUUUAGGAUGAAAACUAAGGCCUUUGACCCGCGCGCUCUUCGUCAACAGAGGAUUGAGCAUCA"}, "B5": {"name": "chr2:42509997:42509998:+_ENSG00000143924_ENST00000318522|hu_mus|hu_hu_hu_mus_True|28_28 (ssRNA)", "RNA": "GGGAGUUCUACAGUCCGACGAUCUCGCUGAGUCCUCUCCUCAUAAUUAAACAGGACUACCACUGAGGCGAUAAAAUAAACUAUCUCCCCUGUGGGAAGCAGGUAUACAUUAGCUCUACAGUCCUUUCCUCGAUAACCGUAUACCAACAGAGGAUUGAGCAUCA"}, "B6": {"name": "chr17:61432403:61432404:+_ENSG00000170921_ENST00000424789|hu_mus|motif|central (ssRNA)", "RNA": "GGGAGUUCUACAGUCCGACGAUCCUUCAUAUUGCACUGGAGUAAAUAAACCUCAGAGAGCGAAACAGGAACGACUUUGUAGCGGGAACUCUUUAGCACUAGGUAGCCUUUCUCUAUGAGGUCAAAUGUGAGUUUCAGGUAUAGCAACAGAGGAUUGAGCAUCA"}, "B7": {"name": "12325077_12325638_1010_3pUTR_ENSMUSG00000064127_ENSMUST00000096495|mouse|control|control (ssRNA)", "RNA": "GGGAGUUCUACAGUCCGACGAUCAACUCGAAACUUCACACGGCCAUUUGCCACUGUAAGAUUUGCUAGCUGUGGAGGAAGAUCUGUCGUUACAAGCCUAUGUCUAAGAAUCUGAUUAAGCUGAUGAAGUGUGGCUUGUUUCUCCAACAGAGGAUUGAGCAUCA"}, "B8": {"name": "chr6:99998177:99998178:-_ENSG00000112237_ENST00000369220|hu_hu|FALSE|FALSE (ssRNA)", "RNA": "GGGAGUUCUACAGUCCGACGAUCAAGGGGAAGCAACAUGUCUUCUUGGCCCAUGUCCUGCACAUACUGGAGCAAAGGUCUAUAAGGAUGAUACACUAUCAAGCAACAAUCCAUUAGUUCUAACAGAUAGAAUUCACAUUCUAACAACAGAGGAUUGAGCAUCA"}, "B9": {"name": "chr12:57918738:57918739:+_ENSG00000166987_ENST00000355673|hu_hu|FALSE|FALSE (ssRNA)", "RNA": "GGGAGUUCUACAGUCCGACGAUCUGCUGGCCCCACCCCAGCCCCACCCGGGGUCACCGGGGCCAAAGGGUCAAAGUUGAAAACCUUGGGGACAUUAAGUGGACACUCCAGACCGCACUUGCAGGUCCCAUCGCUGAGGAGGUACAACAGAGGAUUGAGCAUCA"}, "B10": {"name": "37442170_37476550_135_5pUTR_ENSMUSG00000063646_ENSMUST00000043794|mouse|control|control (ssRNA)", "RNA": "GGGAGUUCUACAGUCCGACGAUCACAGCUACCAGCUCGGCUGUGCUAAGCAGUCGUACAGGGCUCCGCUCGUCCUCUGUGCACACCAUCACUGGCGAGUCCAGCAAGGUCAGCCUUGGACAGAUGAGCGGUCUCCUCUGUGCCCAACAGAGGAUUGAGCAUCA"}, "B11": {"name": "159998549_160000332_1686_CDS_ENSG00000068885_ENST00000483465|human|control|control (ssRNA)", "RNA": "GGGAGUUCUACAGUCCGACGAUCUCCACAAAGGAUAUUGCAUGUAUCGUUCCAUGCCAAAGUAUGCACCAUUGUUCCAAGCUUGAUAAUUUGUUCUUCCUUCCCAAAUCGUUUCACAGAAGUGAUACAGAGAUCUCUAUUUUUCAACAGAGGAUUGAGCAUCA"}, "B12": {"name": "chr1:60041781:60041782:+_ENSMUSG00000041040_ENSMUST00000036540|mus_hu|mus_mus_mus_hu_False|58_88 (ssRNA)", "RNA": "GGGAGUUCUACAGUCCGACGAUCAAGUUUACAAUAGUAAAGUAAAUCAAAUUUAGUCAAAUUUUCUUUUAUUUUCCUUCCUAAAAGAAAAUCUUUAUAACCCAGUCCUAGUCUUGGACAUAGUGAAAGCUAUAAAUUCUGACUCAACAGAGGAUUGAGCAUCA"}, "B13": {"name": "chr1:213302989:213302990:+_ENSG00000136643_ENST00000366960|hu_mus|motif|central (ssRNA)", "RNA": "GGGAGUUCUACAGUCCGACGAUCAGAAGCAACAGCCCCUACUGCCGAAGAAUCCGUAGACAGACUCAGACCAAAGGUUCGGCUGGGAGAACCCUGACGGGAAGCCAUUCCAUCAUCUACCUCGGCAAGAGAGUCUGCAUCAACCAACAGAGGAUUGAGCAUCA"}, "B14": {"name": "chr6:86333760:86333761:-_ENSG00000135316_ENST00000355238|hu_mus|motif|central (ssRNA)", "RNA": "GGGAGUUCUACAGUCCGACGAUCUUCCUCAAGAAUCUGCUCCUUGGUUUUACUCUUAGGAAUCGAGCCCACAAAAAGCCGGUUGUUGGCAACUGAGAUGCAGACACCAAUGUGCUUCCCGGAACGAAUUUCAUGAUUAUUAUACAACAGAGGAUUGAGCAUCA"}},
  "note": "This is one part of the list.",
  "data": [
    {"target": "T1, UNK ZnF1-3 (human, UniProt Q9C0B0 31-174)", "T1 sequence": "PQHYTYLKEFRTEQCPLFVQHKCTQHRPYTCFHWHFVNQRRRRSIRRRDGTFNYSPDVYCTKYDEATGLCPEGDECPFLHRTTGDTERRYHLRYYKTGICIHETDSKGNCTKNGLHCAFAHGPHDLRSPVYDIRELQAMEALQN", "assay": "nsRBNS (natural sequence RNA bind-n-seq); RBNS binding buffer (assumed for nsRBNS): 25 mM Tris pH 7.5, 150 mM KCl, 3 mM MgCl2, 0.01% Triton X-100, 500 ug/ml BSA, 20 U/ml SUPERase-In, 4 C; UNK is unkempt and MSI1 is Musashi-1; names of the RNAs are library labels; protein concentration not given here; high values mean tight binding", "units": {"binding signal": "enrichment R"}, "values": [
      {"binder": "B1", "binding signal": 1.24},
      {"binder": "B2", "binding signal": 1.15},
      {"binder": "B3", "binding signal": 0.636},
      {"binder": "B4", "binding signal": 0.89},
      {"binder": "B5", "binding signal": 1.09},
      {"binder": "B6", "binding signal": 1.33},
      {"binder": "B7", "binding signal": 0.821},
      {"binder": "B8", "binding signal": 0.9},
      {"binder": "B9", "binding signal": 1.25},
      {"binder": "B10", "binding signal": 0.484},
      {"binder": "B11", "binding signal": 0.972},
      {"binder": "B12", "binding signal": 0.604},
      {"binder": "B13", "binding signal": 1.56},
      {"binder": "B14", "binding signal": 1.39}
    ]}
  ]
}
